Common to all, as to experiment: co-IP; SPA-HA proteins immunoprecipitated with α-HA beads (μMACS Anti-HA Starting Kit) from extracts of 4-day-old dark-grown seedlings transferred to 50 μmol m^-2 s^-1 B for 1 h; seedlings pre-incubated in 100 μM MG132 and 10 μM clasto-lactacystin β-lactone; cry1 and cry2 detected with α-cry1 and α-cry2 antibodies; five times more extract for SPA1::SPA2-HA 64 and DS_122-HA 27

The chains behind the UniProt entries cited, without tags or fusion partners.
UniProt Q43125: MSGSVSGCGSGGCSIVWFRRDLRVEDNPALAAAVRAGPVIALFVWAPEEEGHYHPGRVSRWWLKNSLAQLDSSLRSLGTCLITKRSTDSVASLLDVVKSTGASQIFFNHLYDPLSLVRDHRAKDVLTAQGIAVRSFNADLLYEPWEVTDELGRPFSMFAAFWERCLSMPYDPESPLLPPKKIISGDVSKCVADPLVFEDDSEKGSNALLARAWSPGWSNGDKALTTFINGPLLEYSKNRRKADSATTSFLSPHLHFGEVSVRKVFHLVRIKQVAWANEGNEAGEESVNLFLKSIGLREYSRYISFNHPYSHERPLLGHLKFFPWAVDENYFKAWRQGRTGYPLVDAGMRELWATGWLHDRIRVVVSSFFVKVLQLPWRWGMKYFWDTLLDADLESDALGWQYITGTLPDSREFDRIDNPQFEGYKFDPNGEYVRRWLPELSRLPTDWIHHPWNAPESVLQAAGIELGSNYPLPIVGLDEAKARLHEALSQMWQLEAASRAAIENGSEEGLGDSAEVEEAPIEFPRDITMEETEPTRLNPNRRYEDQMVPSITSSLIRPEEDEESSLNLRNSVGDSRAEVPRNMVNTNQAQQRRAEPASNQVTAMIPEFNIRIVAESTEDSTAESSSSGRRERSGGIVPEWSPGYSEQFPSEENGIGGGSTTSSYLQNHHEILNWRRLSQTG

The target in test [1] is T1, DS_122-HA (chimeric SPA1/SPA2 domain-swap protein: N-terminal domain of SPA1, coiled-coil and WD-repeat domains of SPA2) (Arabidopsis thaliana) (UniProt Q9SYX2+Q9T014).
T1 sequence: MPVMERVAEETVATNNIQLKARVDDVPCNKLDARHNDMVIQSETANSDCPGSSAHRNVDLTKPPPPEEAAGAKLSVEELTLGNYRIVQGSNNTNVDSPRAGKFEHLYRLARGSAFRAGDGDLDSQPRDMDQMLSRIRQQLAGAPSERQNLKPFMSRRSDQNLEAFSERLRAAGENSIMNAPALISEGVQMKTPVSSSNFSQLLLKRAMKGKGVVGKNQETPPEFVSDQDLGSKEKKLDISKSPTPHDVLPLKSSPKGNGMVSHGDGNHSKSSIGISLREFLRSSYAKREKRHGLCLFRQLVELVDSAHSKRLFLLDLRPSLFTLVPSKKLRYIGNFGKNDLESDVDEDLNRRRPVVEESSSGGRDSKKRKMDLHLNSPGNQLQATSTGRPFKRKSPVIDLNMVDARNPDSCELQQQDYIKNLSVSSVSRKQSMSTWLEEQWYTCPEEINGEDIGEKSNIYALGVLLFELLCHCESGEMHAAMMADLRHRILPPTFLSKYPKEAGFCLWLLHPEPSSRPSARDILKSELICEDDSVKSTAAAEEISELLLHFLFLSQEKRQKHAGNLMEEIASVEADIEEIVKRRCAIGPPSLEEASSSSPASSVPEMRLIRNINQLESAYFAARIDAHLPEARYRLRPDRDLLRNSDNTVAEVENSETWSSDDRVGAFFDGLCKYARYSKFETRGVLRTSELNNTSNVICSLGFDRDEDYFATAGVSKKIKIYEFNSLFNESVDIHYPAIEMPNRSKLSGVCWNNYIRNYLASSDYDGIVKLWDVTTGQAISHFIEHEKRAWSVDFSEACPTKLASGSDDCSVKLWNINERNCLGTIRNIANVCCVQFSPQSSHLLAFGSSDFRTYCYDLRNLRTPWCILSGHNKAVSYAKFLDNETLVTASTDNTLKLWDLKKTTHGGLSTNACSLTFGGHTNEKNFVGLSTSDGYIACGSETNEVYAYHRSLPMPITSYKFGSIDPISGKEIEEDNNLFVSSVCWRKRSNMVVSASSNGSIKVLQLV

In test [2] the target is T2, SPA1-HA (SUPPRESSOR OF PHYA-105 1, full-length, C-terminal HA tag) (Arabidopsis thaliana) (UniProt Q9SYX2).
T2 sequence: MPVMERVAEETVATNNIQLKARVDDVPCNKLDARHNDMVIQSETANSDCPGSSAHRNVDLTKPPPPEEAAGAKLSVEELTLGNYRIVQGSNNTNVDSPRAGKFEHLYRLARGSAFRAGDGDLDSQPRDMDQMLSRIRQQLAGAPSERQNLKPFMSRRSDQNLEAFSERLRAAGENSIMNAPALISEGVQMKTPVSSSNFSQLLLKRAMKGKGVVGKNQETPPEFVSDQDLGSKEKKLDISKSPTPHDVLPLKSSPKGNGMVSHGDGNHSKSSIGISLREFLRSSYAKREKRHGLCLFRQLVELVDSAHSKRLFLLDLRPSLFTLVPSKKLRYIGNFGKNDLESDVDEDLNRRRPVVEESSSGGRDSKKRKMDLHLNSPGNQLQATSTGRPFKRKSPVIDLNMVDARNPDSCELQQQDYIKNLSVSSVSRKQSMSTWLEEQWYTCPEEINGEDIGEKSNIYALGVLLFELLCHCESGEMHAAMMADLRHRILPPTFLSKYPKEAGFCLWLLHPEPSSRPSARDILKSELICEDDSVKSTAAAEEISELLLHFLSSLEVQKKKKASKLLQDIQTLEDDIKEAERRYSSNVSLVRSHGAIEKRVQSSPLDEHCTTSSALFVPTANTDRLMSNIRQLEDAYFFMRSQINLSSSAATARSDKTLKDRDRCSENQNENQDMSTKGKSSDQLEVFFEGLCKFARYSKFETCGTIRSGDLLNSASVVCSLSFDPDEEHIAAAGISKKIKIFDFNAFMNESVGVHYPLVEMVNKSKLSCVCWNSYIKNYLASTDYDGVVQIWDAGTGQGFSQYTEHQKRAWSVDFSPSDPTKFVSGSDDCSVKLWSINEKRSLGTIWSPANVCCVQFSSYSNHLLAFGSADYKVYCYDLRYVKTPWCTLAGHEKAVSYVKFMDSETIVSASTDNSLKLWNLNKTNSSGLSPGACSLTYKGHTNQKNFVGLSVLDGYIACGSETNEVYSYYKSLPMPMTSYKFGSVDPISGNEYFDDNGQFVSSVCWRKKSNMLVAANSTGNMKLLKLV

The target of test [3] is T3, SPA2-HA (SUPPRESSOR OF PHYA-105 2, full-length, C-terminal HA tag) (Arabidopsis thaliana) (UniProt Q9T014).
T3 sequence: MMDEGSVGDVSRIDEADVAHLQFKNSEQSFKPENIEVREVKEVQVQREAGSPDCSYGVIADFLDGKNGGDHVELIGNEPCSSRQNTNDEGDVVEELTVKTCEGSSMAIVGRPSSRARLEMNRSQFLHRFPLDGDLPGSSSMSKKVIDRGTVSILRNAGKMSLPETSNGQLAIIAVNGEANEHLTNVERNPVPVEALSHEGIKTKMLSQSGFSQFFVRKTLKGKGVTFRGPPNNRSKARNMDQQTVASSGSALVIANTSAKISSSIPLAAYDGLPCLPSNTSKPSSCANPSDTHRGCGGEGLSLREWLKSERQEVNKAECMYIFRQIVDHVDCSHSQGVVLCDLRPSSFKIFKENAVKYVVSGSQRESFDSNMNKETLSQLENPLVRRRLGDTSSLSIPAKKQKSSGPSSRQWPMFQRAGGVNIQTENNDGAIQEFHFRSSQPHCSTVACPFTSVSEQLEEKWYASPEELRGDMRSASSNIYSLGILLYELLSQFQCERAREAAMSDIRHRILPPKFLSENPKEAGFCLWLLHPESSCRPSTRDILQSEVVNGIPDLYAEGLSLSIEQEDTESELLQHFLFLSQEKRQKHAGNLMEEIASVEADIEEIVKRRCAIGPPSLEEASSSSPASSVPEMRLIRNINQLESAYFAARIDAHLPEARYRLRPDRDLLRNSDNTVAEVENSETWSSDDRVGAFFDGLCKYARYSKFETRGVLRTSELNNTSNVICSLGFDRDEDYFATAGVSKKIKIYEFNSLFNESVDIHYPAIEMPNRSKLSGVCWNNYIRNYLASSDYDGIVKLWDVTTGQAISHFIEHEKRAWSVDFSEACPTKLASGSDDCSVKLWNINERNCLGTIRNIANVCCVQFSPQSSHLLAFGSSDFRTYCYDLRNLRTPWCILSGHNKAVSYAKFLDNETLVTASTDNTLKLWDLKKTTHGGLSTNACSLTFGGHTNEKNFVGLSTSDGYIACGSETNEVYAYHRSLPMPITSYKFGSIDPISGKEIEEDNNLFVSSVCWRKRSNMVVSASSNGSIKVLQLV

Test [4] addresses T4, SPA2-HA (SUPPRESSOR OF PHYA-105 2, full-length, C-terminal HA tag) (Arabidopsis thaliana), Q9T014.
T4 chain: T3 sequence
The settings on record: remark: other sources report otherwise.

Results are given in words; binding and its absence hold for the method and conditions named. In cells and extracts the contact can be indirect. Some results given as binding are weak or reduced against the parent protein; the word gives no strength. Where a sequence is shown, tags or fusion partners need not be part of it.

Turning to “cryptochrome 1 (from UniProt Q43125 1-681) (receptor)”, the binding result in test [1], in test [2] and in test [3] was “binds” each time.
In the case of “cryptochrome 2 (from UniProt Q96524 1-612) (receptor)”, the binding result in test [1] is “binds”.

B1: cryptochrome 2, Q96524 1-612 (receptor)
chain: MKMDKKTIVWFRRDLRIEDNPALAAAAHEGSVFPVFIWCPEEEGQFYPGRASRWWMKQSLAHLSQSLKALGSDLTLIKTHNTISAILDCIRVTGATKVVFNHLYDPVSLVRDHTVKEKLVERGISVQSYNGDLLYEPWEIYCEKGKPFTSFNSYWKKCLDMSIESVMLPPPWRLMPITAAAEAIWACSIEELGLENEAEKPSNALLTRAWSPGWSNADKLLNEFIEKQLIDYAKNSKKVVGNSTSLLSPYLHFGEISVRHVFQCARMKQIIWARDKNSEGEESADLFLRGIGLREYSRYICFNFPFTHEQSLLSHLRFFPWDADVDKFKAWRQGRTGYPLVDAGMRELWATGWMHNRIRVIVSSFAVKFLLLPWKWGMKYFWDTLLDADLECDILGWQYISGSIPDGHELDRLDNPALQGAKYDPEGEYIRQWLPELARLPTEWIHHPWDAPLTVLKASGVELGTNYAKPIVDIDTARELLAKAISRTREAQIMIGAAPDEIVADSFEALGANTIKEPGLCPSVSSNDQQVPSAVRYNGSKRVKPEEEEERDMKKSRGFDERELFSTAESSSSSSVFFVSQSCSLASEGKNLEGIQDSSDQITTSLGKNGCK
Take B1: in test [4], the binding entry is “no binding”.

These data come from article PMC4957354.
